Source: PubChem BioAssay AID1508623 (National Center for Advancing Translational Sciences (NCATS), 2021)
The whole screen tested about 48,000 compounds, of which about 450 (0.94%) were called active. Inconclusive results (about 19%) are left out. Calls come from the whole dose curve; as a rule, active = well fitted inhibition curve with a large enough effect; inconclusive = small, poorly fitted or top-dose-only effect; inactive = no such curve, though single readings can be large or run the other way. Some of the results follow.

Experiment: Primary qHTS for Identification of Small Molecule Inhibitors of Huntingtin Promoter Activity; note: nearly all actives have a fitted effect of over 50% in size
Conditions: HEK293 HTT promoter firefly luciferase reporter (activity 0% = vehicle and -100% = no light), 24 h; series mostly up to 57.5 µM; activity change, negative = inhibition: at the top concentration
Method in brief: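 HEK293 Fluc reporter, 2,500 cells/well, 24 h pre-culture; cpds up to 57.5 uM final, 24 h 37 degrees C; Dual-Glo, 10 min RT; normalized vehicle = 0%, zero RLU = -100%.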

Activity change, negative = inhibition, inactive:
COC(=O)c1ccc2c(c1)N(CC(=O)Nc1cccc(Cl)c1C)C(=O)c1ccccc1S2 -18.1%
CC(C)NC(=O)Cn1c(=O)nc(-c2ccccc2F)c2cc(Cl)ccc21 -12.2%
CCc1ccc(OC(=O)CSc2nnc(-c3ccc(OC)c(OC)c3)o2)cc1 -6.78%
NC1=NCC2c3ccccc3Cc3ccccc3N12 (stereo unspecified) -7.85%
Cc1c2cnn(CC(=O)NC(C)C)c(=O)c2c(C)n1Cc1cccc(Cl)c1 -18.2%
COc1ccc(/C=C/c2nc(C#N)c(NCc3ccc(C)cc3)o2)cc1OC -13.5%
O=C(O)CCC(=O)O -1.93%
Cc1ccc(NC(=O)N2CCC3(CC2)Oc2ccccc2C(=O)N3Cc2ccc(F)cc2)cc1 42%
CCNC(=O)c1ccc2c(c1)sc1nc(-c3cccc(OC)c3)cn12 13.8%
CC(Oc1ccccc1)C(=O)Nc1cccc(-c2cn3cccnc3n2)c1 (stereo unspecified) -17.9%
CCOc1nc(-c2ccccc2)ccc1-c1noc(-c2ccc(C)cc2)n1 -12.6%
CCOc1ccc(NC(=O)CC2C(=O)N(c3ccccc3)C(=O)N2CCc2sccc2C)cc1 (stereo unspecified) -29.8%
O=C(Cn1cc(SCc2cccc(Cl)c2)c2ccccc21)N1CCCCC1 3.09%
Cc1c(C(=O)OC2CCC(C)CC2)[nH]c2c1C(=O)CC(c1ccc(N(C)C)cc1)C2 (stereo unspecified) -12.3%
Fc1ccc(-c2cc(-c3nc(-c4ccc(Cl)cc4)no3)[nH]n2)cc1 -15.5%
CC(C)(C)OC(=O)N1CCC(c2c(C(=O)N3CCN(C(=O)c4ccco4)CC3)cnn2-c2cccc(Cl)c2)CC1 -22.5%
CC(=O)c1ccc(NC(=O)c2nc(-c3ccc(Cl)cc3)n3c2CCCCC3)cc1 -11.4% [at 11.5 µM]
COC(=O)c1cc(NC(=O)CC2C(=O)OCCN2Cc2ccccc2)cc(C(=O)OC)c1 (stereo unspecified) -17.4% [at 11.5 µM]
COc1cccc(OCC(=O)NC2CC(=O)N(c3cccc(OC)c3)C2)c1 (stereo unspecified) -6.14%
Cc1ccccc1CSc1nc2c(sc3ccccc32)c(=O)n1CCCC(=O)NCCCOC(C)C -13.5%
Cc1cc(C)c2c(=O)cc(C(=O)Nc3sc4c(c3C(=O)NCc3ccco3)CCCC4)oc2c1 5.33%
CS(=O)(=O)CC[C@@H](C(=O)NCCc1ccccc1)N1Cc2ccccc2C1=O 0.19%
Cc1cccc(OCC(=O)N2CCC(c3nc4ccccc4o3)CC2)c1C -8.72%
NC(=O)N1c2ccccc2CC(=O)c2ccccc21
COc1ccc(NC(=O)Cn2c(=O)c3ccccc3n3nncc23)cc1Cl -3.28%
COCc1cc(C)nc2c1C(=O)NC(c1ccc(NC(C)=O)cc1)N2Cc1ccccc1 (stereo unspecified) 0.139%
Cc1ccc(Nc2c3c(nc4nncn24)CCC3)c(C)c1 -15.4%
COc1ccc2c(c1)-c1nc(NC(=O)c3cccc(Br)c3)sc1CC2 -18.6%
Cc1ccc(NC(=O)Cn2nnc(-c3ccccc3)n2)c(C)c1 -4.39%
O=C(C1COc2ccccc2O1)N(Cc1cccnc1)c1nc2c(F)cccc2s1 (stereo unspecified) -11.7%
CCOC(=O)c1c(NC(=O)c2cc(-c3cccc(Cl)c3)on2)sc(C(C)=O)c1C -3.13%
CCOc1ccc(S(=O)(=O)c2cn(CC)c3ccc(F)cc3c2=O)cc1 -28.7%
COc1ccccc1C1C(C(=O)N2CCCCC2)=C(C)Nc2nc3ccccc3n21 (stereo unspecified) -13.2%
COc1cccc(/C=C/c2nc(C#N)c(NC3CCCCC3)o2)c1 -0.858%
CSc1ccc(CCNC(=O)Cn2c(C)c3cnn(-c4ccccc4)c(=O)c3c2C)cc1 -5.81%
COc1cccc(-n2c(=O)c3sc4ccccc4c3n(Cc3c(F)cccc3Cl)c2=O)c1 -6.75%
Cc1ccc(CNC(=O)c2ccc(Cn3c(SCc4ccc(F)cc4)nc4cccnc43)cc2)o1 1.25%
O=c1n(Cc2ccc(F)cc2)c2ccccc2c2nc(-c3ccccc3)nn12 5.82%
CCOC(=O)c1c(C)oc2nc(C)nc(NCC3CCN(Cc4cc(C)ccc4C)CC3)c12 0%
Cc1ccc(N2C(=O)C(CC(=O)Nc3cccc(F)c3)N(CCc3ccccc3F)C2=O)cc1 (stereo unspecified) -6.09%
Cc1ccccc1OCC(=O)Nc1ccc(-c2nc3cc(Cl)cc(Cl)c3o2)cc1 -3.73%
COc1cccc(NC(=O)N(CCC(C)C)C2CCN(C(C)C)CC2)c1 -10.3%
Cc1ccc(CNC(=O)C2CCN(S(=O)(=O)c3ccc4nc5c(c(C(=O)O)c4c3)CC(C)CC5)CC2)cc1 (stereo unspecified) -9.97%
CCc1cnc2c(c1SCC(=O)NCc1ccc(C)cc1)c(=O)n(C)c(=O)n2C -37.8%
C[C@@H](N)C(=O)O -1.07%
CC(=O)c1ccc(NS(=O)(=O)c2ccc(Br)s2)cc1 -8.69%
CCOc1ccc(C(=O)OCc2cc(=O)n3nc(C4CC4)sc3n2)cc1 -20.6%
COc1cc(Cl)c(C)cc1NC(=O)c1cc2c(=O)oc3ccccc3c2s1 17%
CCn1cc(C(=O)N2CCN(c3cc(Cl)ccc3C)CC2)c(=O)c2cc(S(=O)(=O)N3CCCC3)ccc21 -4.12%
COc1cc2nc(SCC(=O)Nc3ccccc3C)n3nc(CCn4c(C)nc5ccccc54)nc3c2cc1OC -3.05%
CC(C)(C)C1CCc2c(sc(NC(=O)c3ccco3)c2C(=O)Nc2ccccc2Cl)C1 (stereo unspecified) -19%
CCOCCCNC(=O)c1cn(CC)c2ccc(S(=O)(=O)N3CCOCC3)cc2c1=O -5.08%
CCOC(=O)CSc1nc2ccc(NC(=O)COc3ccc(F)cc3)cc2s1 -4.44%
Cc1cccc2sc(N(Cc3cccnc3)C(=O)CCOc3ccccc3)nc12 -9.99%
COc1ccc(CNC(=O)C2=CC(c3ccc(OC)c(OC)c3)=NS(=O)(=O)N2C)cc1 -16.3%
CCOc1ccc(NC(=O)N(Cc2cn(CC)c3ccccc23)C2CCCCCC2)cc1 -12.8%
Cc1cc(C)c(NC(=O)C2CCN(S(=O)(=O)c3c(C)noc3/C=C/c3ccccc3F)CC2)c(C)c1 -16.8%
CN(C)c1ccc(C(CNC(=O)c2ccccc2Cl)N2CCCC2)cc1 (stereo unspecified) 11.1%
Cc1nnsc1C(=O)Oc1ccc(Cl)cc1 -9.25%
CN1C(=O)Cc2cc(S(=O)(=O)NCc3ccc(Cl)cc3)ccc21 -19.8%
O=C(NCc1ccccc1)C(=O)NCC(c1cccs1)S(=O)(=O)c1cccs1 (stereo unspecified) -14.6%
Cc1ccc(Cn2c(=O)n(CCCCC(=O)NCc3ccc4c(c3)OCO4)c(=O)c3ccccc32)cc1 -8.67%
COc1cccc(N2CCN(C3=NS(=O)(=O)C(c4ccc(C)cc4)=C3C)CC2)c1 -23%
CCC(Sc1nnc2c(n1)[nH]c1ccccc12)C(=O)Nc1ccccc1OC (stereo unspecified) -0.837%
Cc1cc(C)cc(C(=O)NCCc2csc(-c3ccc(C(F)(F)F)cc3)n2)c1 -19.3%
CCc1ccccc1NC(=O)CSc1ncc2c(n1)-c1cc(Cl)ccc1N(Cc1ccccc1)S2(=O)=O -15.7%
COc1ccc(CCNC(=O)CCc2c(C)nc3c4cccnc4nn3c2C)cc1OC 0.767%
CCCCn1cc(S(=O)(=O)c2ccc(OC)cc2)c(=O)c2cc(F)c(N3CCOCC3)cc21 3.42%
Cc1c(C(=O)OCC2CCCCC2)[nH]c2c1C(=O)CC(c1ccccc1Cl)C2 (stereo unspecified) -2.37%
CCc1ccc(-n2nc(C)c3c(C)cc(=O)n(CC(=O)Nc4cc(C)ccc4C)c32)cc1 -19.2%
COc1ccc(NC(=O)c2ncn(-c3ccccc3)n2)cc1Cl 58.6%
CC(=O)Nc1c(C)nn(-c2ccccc2)c1N1CCC(C(=O)Nc2cc(F)ccc2F)CC1 3.24%
Cc1ccc(N2C(=O)c3n[nH]c(C)c3C2c2ccccc2Cl)cc1 (stereo unspecified) -18.7%
COc1ccccc1NC(=O)N1CCN(Cc2nc3ccc(C)cc3o2)CC1 -18.6%
Cn1cc(S(=O)(=O)N2CCCC2)cc1C(=O)N1CCN(c2cccc(Cl)c2)CC1 -24.2%
Cc1cc(C)c(NC(=O)Cn2c(=O)n(CC3CCCO3)c(=O)c3ccccc32)c(C)c1 (stereo unspecified) -7.18%
Cc1ccc2oc(C(=O)Nc3ccc(S(=O)(=O)N4CCCCCC4)cc3)cc(=O)c2c1 -4.24%
CCc1ccc(NC(=O)c2sc(-n3nc(C)c(Cc4ccc5c(c4)OCO5)c3C)nc2C)cc1 0.279%
CCOc1ccccc1NC(=O)Cn1c(=O)n(-c2ccc(C)c(C)c2)c(=O)c2oc3ccccc3c21 5.01%
O=C(Oc1ccccc1F)c1nc(SCc2ccccc2F)ncc1Cl -5.96%
COc1ccccc1NC(=O)Cn1nc2c3cc(F)ccc3n(Cc3cccc(C)c3)cc-2c1=O 9.93%
CC(C)Cn1cnc2c(N)nc3ccccc3c21
CCN1CCC(N(Cc2ccc3c(c2)OCO3)C(=O)Nc2cccc(C)c2C)CC1 -4.61%
COc1ccc(Nc2ncc3c(n2)CCN(Cc2cccc(F)c2F)C3)c(OC)c1 -1.68%
Cc1ccc2nc(-c3cccc(NC(=O)CSc4ccc(Cl)cc4)c3)oc2c1 29.1%
CCc1ccc(Nc2nc3c(S(=O)(=O)c4ccc(C)cc4)nnn3c3ccsc23)cc1 -13.5%
Cc1ccc(S(=O)(=O)c2nnn3c2nc(N2CCCC(C)C2)c2cc(Cl)ccc23)cc1C (stereo unspecified) -2.41%
Cc1ccc(NC(=O)Cn2c(=O)n(-c3ccccc3)c(=O)c3ccc(C(=O)NCc4ccc5c(c4)OCO5)cc32)cc1 -22.4%
CCN(C(=O)Cn1cc(S(=O)(=O)N2CCN(c3ccccc3F)CC2)c2ccccc2c1=O)c1ccc(C)c(C)c1 -12.2%
Oc1c(C(c2ccccc2Cl)N2CCC(O)CC2)sc2nc(-c3ccco3)nn12 (stereo unspecified) 12.8%
Cc1nnc2c3ccccc3nc(Nc3ccccc3C(=O)O)n12 -26.9%
COc1ccc(S(=O)(=O)Nc2cc(-c3cn4ccc(C)cc4n3)ccc2C)cc1OC 16%
CCn1ccc2cc(S(=O)(=O)N3CCC(C(=O)NCC(C)c4ccccc4)CC3)ccc21 (stereo unspecified) -19%
Cc1ccc(-n2ncc(C(=O)NCc3ccccn3)c2C2CCN(C(=O)OC(C)(C)C)CC2)cc1C -17.8%
COc1cccc(CNC(=O)C2CCN(Cc3cc4ccccc4n3Cc3ccccc3)CC2)c1OC -19.6%
Cc1ccc(NC(=O)CSc2nc3ccccc3nc2Cc2ccccc2)c(Cl)c1 -8.51%
